Assay results: the RNAGym collection of RNA variant scans (doi:10.1093/nar/gkz1192)
The source gives no read counts; variants with many changes may rest on few reads.

B1: CPEB3 Ribozyme (parent)
chain: UAACAGGGGGCCACAGCAGAAGCGUUCACGUCGCAGCCCCUGUCAGAUUCUGGUGAAUCUGCGAAUUCUGCUGUAUAUCUC

Variants of: B1
Test: self-cleavage, relative activity (ratio to wild type); higher = more cleavage; in vitro, sequencing
Method in brief: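 For each CPEB3 ribozyme variant, relative activity is its cleaved/total read fraction divided by the unmutated ribozyme's. Barcoded error-prone PCR libraries were transcribed by T7 RNA polymerase (5 hours, 37°C) and held in DNase I for 15 min before an EDTA stop, with cleavage occurring throughout. Template-switching reverse transcription and Illumina sequencing were used to read the RNAs. A 5-read minimum applied, and results are the mean of three batches.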

Row | Variant | self-cleavage
1 | G9A G10A U26G A35G C44A U48G U78C | 0.04
2 | G9A G10A U58A A65G U67C U72C U78A | 0.03
3 | G9A G10C A20G U25C U51A | 0.25
4 | G9A G10C G22U A28U U60C A65G U69C | 0.09
5 | G9A G16A C23A U26C A45U A47U A56G | 0.04
6 | G9A G16A G53U U54G A65U | 0.04
7 | G9A G16A U31C C40A U80C | 0.35
8 | G9A G16C G42C A57U | 0.05
9 | G9A G16U U41C G42A U43C U66C U78C | 0.04
10 | G9A G19C C40G A77G | 0.14
11 | G9A G19C U80C | 0.11
12 | G9A G19U A20G U26C A45U U54A | 0.05
13 | G9A G19U A21G U41A U54A | 0.08
14 | G9A G19U C40A U51A U74C U78C | 0.13
15 | G9A G19U U26C A35G U43A U80A | 0.06
16 | G9A G22A U25A U67C | 0.04
17 | G9A G22A U26A A28G | 0.21
18 | G9A G22A U26A U49A | 0.14
19 | G9A G22U A45G U69G | 0.06
20 | G9A G22U U26C | 0.11
21 | G9A G24A A35U A47G U54C | 0.03
22 | G9A G24A A45G | 0.17
23 | G9A G24A C32G C40U U41A U54A | 0.03
24 | G9A G24U U51A A56G U78C | 0.05

Row | Variant | self-cleavage
25 | G9A G30A A35C U49A G53C A57G | 0.06
26 | G9A G30U A45G U60A | 0.12
27 | G9A G33A U43A A75G | 0.06
28 | G9A G33A U69C U78G U80A | 0.05
29 | G9A G33C C39U U76C | 0.11
30 | G9A G33C G42U | 0.12
31 | G9A G33C U60C U78C | 0.05
32 | G9A G42A U54C A65U | 0.21
33 | G9A G46A A47G U49A U58C G70A U78C | 0.05
34 | G9A G46A G55U | 0.07
35 | G9A G55U U72C U74A | 0.52
36 | G9A U25A A28G A35G U69C | 0.13
37 | G9A U25A A28G G53A U58C | 0.04
38 | G9A U25A A56G A57G | 0.32
39 | G9A U25A A56U U78C | 0.16
40 | G9A U25A U31C C40U U51A | 0.17
41 | G9A U25A U69A G70C | 0.11
42 | G9A U25A U72C U78C | 0.05
43 | G9A U25A U78C | 0.15
44 | G9A U25C A64G U78C U80C | 0.17
45 | G9A U25C G33A A77G | 0.05
46 | G9A U25C U26C A56U A65G C68A | 0.03
47 | G9A U25C U31G U72C | 0.15
48 | G9A U25C U41C U78C U80A | 0.08

Row | Variant | self-cleavage
49 | G9A U25C U43G A57C U72C U78C | 0.08
50 | G9A U26A A35G G36C U60G A64G U80A | 0.04
51 | G9A U26C A28G A45G A47G U48C | 0.06
52 | G9A U26C A28U C34U A47G | 0.04
53 | G9A U26C A35G A45G | 0.14
54 | G9A U26C A35G G36A U69A | 0.04
55 | G9A U26C A35G U58C U74A | 0.06
56 | G9A U26C A47G | 0.08
57 | G9A U26C A47U A56G | 0.11
58 | G9A U26C A56G | 0.11
59 | G9A U26C A57C U72A | 0.05
60 | G9A U26C C38A | 0.06
61 | G9A U26C G30A A47G U49C U67A | 0.04
62 | G9A U26C G53U C68A | 0.14
63 | G9A U26C U31A A47U U49A A57G | 0.07
64 | G9A U26C U31C U54C U67A | 0.1
65 | G9A U26C U41A C62U | 0.28
66 | G9A U26C U41C A45G U54C U72A | 0.04
67 | G9A U26C U41C U60A | 0.24
68 | G9A U26C U58A A65U U69C | 0.21
69 | G9A U26C U69C U78C | 0.03
70 | G9A U26G A65G C79U | 0.02
71 | G9A U31A U80C | 0.09
72 | G9A U31C A35U U66C U67C | 0.05

Row | Variant | self-cleavage
73 | G9A U31C A57U U67A | 0.11
74 | G9A U31C C40U U78C | 0.06
75 | G9A U31C G42A U43C | 0.06
76 | G9A U31C U41A A45G | 0.06
77 | G9A U31C U48C U54C | 0.12
78 | G9A U31C U54C | 0.15
79 | G9A U31C U54C U69A | 0.04
80 | G9A U31G A47G | 0.05
81 | G9A U41A A45G A64G U72C | 0.21
82 | G9A U41A U43C | 0.15
83 | G9A U41A U48C C71A | 0.05
84 | G9A U41A U51G A65G G70A | 0.09
85 | G9A U41A U54A | 0.05
86 | G9A U41A U67A U76C | 0.14
87 | G9A U41A U80C | 0.15
88 | G9A U41C U43A A57G | 0.15
89 | G9A U41C U54A U80C | 0.16
90 | G9A U43A A47U U51A U76C | 0.17
91 | G9A U43A A56G U58G | 0.05
92 | G9A U43A C44A U58A | 0.14
93 | G9A U43A G55A A57G U60A C62U | 0.08
94 | G9A U43A U51G A64U U72A U78A | 0.08
95 | G9A U43A U80C | 0.39
96 | G9A U43C A45C U48C U69A G73A | 0.06

Row | Variant | self-cleavage
97 | G9A U43C A45U U54C A56U U69A U72A | 0.04
98 | G9A U43C A47C U48C U60A A64G | 0.12
99 | G9A U43C A56U A57G U60A | 0.08
100 | G9A U43C U72C | 0.3
101 | G9A U43C U76C | 0.18
102 | G9A U48C U54A A56G A64U | 0.05
103 | G9A U49A A64U A65G U66C A75G | 0.03
104 | G9A U49A U67C | 0.14
105 | G9A U49C A64G | 0.18
106 | G9A U49C A77G | 0.31
107 | G9A U49C G55U A57U U78C | 0.09
108 | G9A U49C U51A U54C | 0.07
109 | G9A U49C U54C G55U | 0.16
110 | G9A U51A U72G A75G | 0.31
111 | G9A U51C U58A U72C | 0.07
112 | G9A U51C U66C | 0.07
113 | G9A U51C U67C U76C | 0.18
114 | G9A U51G A65G U72C U76C | 0.05
115 | G9A U54A U60A | 0.17
116 | G9A U54A U60A U69C | 0.31
117 | G9A U54A U69A | 0.2
118 | G9A U54C U60C A65G | 0.39
119 | G9A U58A U72C | 0.15
120 | G9A U58C A77C | 0.06

Row | Variant | self-cleavage
121 | G9A U58C U60A | 0.06
122 | G9A U60A U76C | 0.4
123 | G9A U60C A65G U80C | 0.1
124 | G9A U60C A77U | 0.22
125 | G9A U66C U69A | 0.32
126 | G9A U67A U72A A77G | 0.06
127 | G9A U67A U72A A77G U80C | 0.11
128 | G9A U67C A77U | 0.07
129 | G9A U67C U74A U80A | 0.03
130 | G9A U67C U80C | 0.2
131 | G9A U72A U80C | 0.13
132 | G9C A13G A15G C29U U51C C68A | 0.28
133 | G9C A13U U60C | 0.11
134 | G9C A15G A18G G30U U51A | 0.06
135 | G9C A15G A45G A77G | 0.32
136 | G9C A15G G16A U31C A35U U41A A47G | 0.03
137 | G9C A15G U25A U69A A75G | 0.05
138 | G9C A15G U43G A64G | 0.07
139 | G9C A15G U51G A56G A57G | 0.25
140 | G9C A15U U26A U41A U43C G73C C81U | 0.06
141 | G9C A18G A64G U66C | 0.06
142 | G9C A18G C40A U80C | 0.04
143 | G9C A18G U26C U43A A45U U67A C81U | 0.26
144 | G9C A18G U26C U67A | 0.06

Row | Variant | self-cleavage
145 | G9C A18U G22A U25C U74C | 0.04
146 | G9C A18U U25C U49C U67C U69C U72C | 0.02
147 | G9C A20G A56G A64G | 0.05
148 | G9C A20G C39U A64G U69C U72A | 0.1
149 | G9C A20G G24U C39U C62U U72A | 0.05
150 | G9C A20G U31C A45G U58C U80A | 0.03
151 | G9C A20U U26C U80C | 0.07
152 | G9C A20U U54C A57U A65U | 0.05
153 | G9C A20U U78C | 0.51
154 | G9C A21G U67C | 0.18
155 | G9C A21U A28G A45G U66C | 0.04
156 | G9C A21U A28G U41A A77U U80C | 0.05
157 | G9C A35G A47G U69A U78C U80C | 0.07
158 | G9C A35G U41C U43C U78C | 0.32
159 | G9C A35U A56U | 0
160 | G9C A35U U54C U72C | 0.08
161 | G9C A35U U67C U69A | 0.11
162 | G9C A45U U54A A56U | 0.05
163 | G9C A56U A65U U67C | 0.11
164 | G9C C11G A45U U72G | 0.16
165 | G9C C12U A64U U80C | 0.11
166 | G9C C12U C32U | 0.05
167 | G9C C12U G36U U41A A77G | 0.04
